The antibiotic and cytotoxicity screens of Wong et al. (2023)
The other results are listed elsewhere or left out.

Tests used:
[1] = test system: HSkMC (human skeletal muscle cells); experiment: cytotoxicity call (relative viability < 0.9); conditions: 10 µM
[2] = test system: HepG2; experiment: cytotoxicity call (relative viability < 0.9); conditions: 10 µM
[3] = test system: S. aureus RN4220; experiment: growth inhibition call (relative growth <= 0.2); conditions: 50 µM

O=C([O-])CCNC(=O)c1ccc(N=Nc2ccc(O)c(C(=O)[O-])c2)cc1.[Na+].[Na+]
inactive: cytotoxicity call [1] | cytotoxicity call [2] | growth inhibition call [3]

C[C@@H]1CN([C@@H](C)CO)C(=O)Cc2cc(NC(=O)Cn3cnnn3)ccc2O[C@H]1CN(C)Cc1ccc(-c2ccccc2)cc1
inactive: cytotoxicity call [1] | cytotoxicity call [2] | growth inhibition call [3]

C[C@@H]1CN([C@H](C)CO)C(=O)Cc2cc(NC(=O)Cn3cnnn3)ccc2O[C@@H]1CN(C)S(=O)(=O)c1cn(C)cn1
inactive: cytotoxicity call [1] | cytotoxicity call [2] | growth inhibition call [3]

O=C(C[C@H]1C[C@H]2c3cc(NC(=O)C4CCOCC4)ccc3O[C@H]2[C@@H](CO)O1)NCc1ccc2c(c1)OCO2
inactive: cytotoxicity call [1] | cytotoxicity call [2] | growth inhibition call [3]

COc1cccc(OC)c1OCCNCCO
inactive: cytotoxicity call [1] | cytotoxicity call [2] | growth inhibition call [3]

Cc1ccccc1S(=O)(=O)N1C[C@@H](O)COC[C@@H]2O[C@H](CC(=O)N3CCN(C)CC3)CC[C@H]21
inactive: cytotoxicity call [1] | cytotoxicity call [2] | growth inhibition call [3]

C[C@@H]1CN([C@@H](C)CO)C(=O)c2cc(NS(=O)(=O)c3cccs3)ccc2O[C@@H]1CN(C)S(=O)(=O)c1ccccc1
inactive: cytotoxicity call [1] | cytotoxicity call [2] | growth inhibition call [3]

C[C@H]1CCc2c(sc(/N=C/C=C/c3ccccc3)c2C#N)C1
inactive: cytotoxicity call [1] | cytotoxicity call [2] | growth inhibition call [3]

CN(C)Cc1cn(CC[C@H]2CC[C@@H](NC(=O)Cc3cccnc3)[C@@H](CO)O2)nn1
inactive: cytotoxicity call [1] | cytotoxicity call [2] | growth inhibition call [3]

O=C1O[C@H](c2ccccc2)[C@H](c2ccccc2)N2[C@H]1[C@@H](C(=O)Nc1nc3ccccc3s1)[C@]1(C(=O)Nc3ccc(C#CCCO)cc31)[C@H]2c1ccc(O)cc1
inactive: cytotoxicity call [1] | cytotoxicity call [2] | growth inhibition call [3]

NCCN1CCO[C@H](c2ccccc2)C1
inactive: cytotoxicity call [1] | cytotoxicity call [2] | growth inhibition call [3]

Cc1noc(C)c1S(=O)(=O)Nc1ccc2c(c1)C(=O)N([C@@H](C)CO)C[C@@H](C)[C@H](CN(C)S(C)(=O)=O)OCCCC[C@@H](C)O2
inactive: cytotoxicity call [1] | cytotoxicity call [2] | growth inhibition call [3]

CCN(CC)/[N+]([O-])=N/OCOC(C)=O
inactive: cytotoxicity call [1] | cytotoxicity call [2] | growth inhibition call [3]

C[C@@H]1CN([C@@H](C)CO)C(=O)c2cc(NC(=O)CCCCCC(=O)Nc3ccccc3N)ccc2O[C@@H]1CN(C)C(=O)Nc1ccccc1
inactive: cytotoxicity call [1] | cytotoxicity call [2] | growth inhibition call [3]

CCC(=O)Nc1ccc2c(c1)C(=O)N(C)C[C@H](OC)[C@@H](C)CN(C(=O)CN1CCOCC1)[C@H](C)CO2
inactive: cytotoxicity call [1] | cytotoxicity call [2] | growth inhibition call [3]

C[C@@H]1CN([C@H](C)CO)C(=O)CCCn2cc(nn2)CO[C@H]1CN(C)S(=O)(=O)c1ccc(-n2cccn2)cc1
inactive: cytotoxicity call [1] | cytotoxicity call [2] | growth inhibition call [3]

C[C@@H]1CCCCO[C@@H](CN(C)C(=O)Nc2ccc(F)cc2)[C@@H](C)CN([C@H](C)CO)C(=O)c2cc(NC(=O)C3CCCCC3)ccc2O1
inactive: cytotoxicity call [1] | cytotoxicity call [2] | growth inhibition call [3]

CC(C)NC(=O)N(C)C[C@@H]1Oc2ccc(NC(=O)CCN3CCOCC3)cc2C(=O)N([C@H](C)CO)C[C@H]1C
inactive: cytotoxicity call [1] | cytotoxicity call [2] | growth inhibition call [3]

C[C@H]1CN([C@@H](C)CO)C(=O)Cc2cc(NC(=O)Cn3cnnn3)ccc2O[C@@H]1CN(C)Cc1ccncc1
inactive: cytotoxicity call [1] | cytotoxicity call [2] | growth inhibition call [3]

COc1ccc2c3c(n(c2c1)C)[C@@H](CO)N(C[C@]13CN(C1)C(=O)CN1CCOCC1)C(=O)Nc1ccc(cc1)F
inactive: cytotoxicity call [1] | cytotoxicity call [2] | growth inhibition call [3]

CCCNC(=O)C[C@H]1CC[C@H]2[C@@H](COc3ccc(NC(=O)c4ccc5c(c4)OCO5)cc3C(=O)N2C)O1
inactive: cytotoxicity call [1] | cytotoxicity call [2] | growth inhibition call [3]

O=C(NCC[C@H]1CCCCN1S(=O)(=O)c1ccc(F)cc1)C(=O)NCCN1CCOCC1
inactive: cytotoxicity call [1] | cytotoxicity call [2] | growth inhibition call [3]

C[C@@H]1CN([C@@H](C)CO)C(=O)c2cc(C3=CCCCC3)cnc2O[C@H]1CN(C)S(=O)(=O)c1cn(C)cn1
inactive: cytotoxicity call [1] | cytotoxicity call [2] | growth inhibition call [3]

Cc1noc(C)c1NC(=O)N(C)C[C@@H]1Oc2c(NC(=O)NC(C)C)cccc2C(=O)N([C@H](C)CO)C[C@@H]1C
inactive: cytotoxicity call [1] | cytotoxicity call [2] | growth inhibition call [3]

C=CCOC(=O)[C@H]1[C@@H]2C(=O)O[C@@H](c3ccccc3)[C@@H](c3ccccc3)N2[C@@H](c2ccc(OCCOC(=O)[C@H]3C[C@H]4C(=O)N[C@@H](CCCC[N+](C)(C)C)C(=O)N4[C@H]3c3cccc(OCCO)c3)cc2)[C@]12C(=O)Nc1ccccc12
inactive: cytotoxicity call [1] | cytotoxicity call [2] | growth inhibition call [3]

C[C@H](O)C#Cc1cnc2c(c1)C(=O)N([C@@H](C)CO)C[C@@H](C)[C@H](CN(C)Cc1cncnc1)O2
inactive: cytotoxicity call [1] | cytotoxicity call [2] | growth inhibition call [3]
